# From PubChem BioAssay AID1745853 (National Center for Advancing Translational Sciences (NCATS), 2022)
# Some of the results follow. Further columns of the screen follow, without active or inactive calls.
# Columns and labels:
# Test in all cases: Primary Screen for Target Class Profiling of Small Molecule Inhibitors of Methyltransferases
# [1] = molecular target: Glycine N-methyltransferase (Homo sapiens) (UniProt Q14749); details: purified enzyme, MTase-Glo SAH luminescence; measured here: GNMT inhibition; at 40 µM; stronger effect = lower value
# Procedure, shortened: (§1)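 Each enzyme was assayed with SAM and its substrate. SAH formation detected by MTase-Glo luminescence; single-point 40 uM screen[…].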
# [2] = molecular target: Guanidinoacetate N-methyltransferase (Homo sapiens) (UniProt Q14353); details: purified enzyme, MTase-Glo SAH luminescence; measured here: GAMT inhibition; at 40 µM; stronger effect = lower value
# Procedure, shortened: as §1
# [3] = molecular target: Histamine N-methyltransferase (Homo sapiens) (UniProt P50135); details: purified enzyme, MTase-Glo SAH luminescence; measured here: HNMT inhibition; at 40 µM; stronger effect = lower value
# Procedure, shortened: as §1
# [4] = molecular target: Nicotinamide N-methyltransferase (Homo sapiens) (UniProt P40261); details: purified enzyme, MTase-Glo SAH luminescence; measured here: NNMT inhibition; at 40 µM; stronger effect = lower value
# Procedure, shortened: as §1
# [5] = molecular target: Phenylethanolamine N-methyltransferase (Homo sapiens) (UniProt P11086); details: purified enzyme, MTase-Glo SAH luminescence; measured here: PNMT inhibition; at 40 µM; stronger effect = lower value
# Procedure, shortened: as §1
# % is scaled to controls: 0 for no effect and ±100 for the full control effect.
SMILES,"activity change, negative = inhibition [1]","activity change, negative = inhibition [2]","activity change, negative = inhibition [3]","activity change, negative = inhibition [4]","activity change, negative = inhibition [5]"
COC(=O)CCC1(C)C(C(C)(C)O)C(O)CC2(C)Oc3c(C)c4c(c(OC)c3CC21)C(=O)OC4 (stereo unspecified),0.473%,4.41%,4.53%,-12.3%,3%
C/C1=C\C[C@]2(C)C(=O)C(O)=C([C@H](C)CO)[C@H]2C/C=C(\C)[C@@H](O)CC/C(C)=C/CC1,-6.48%,-12.9%,-1.16%,-22.4%,-8.97%
Cc1cc2c3c([nH]c2cc1S(=O)(=O)NCCN1CCN(c2ccccc2F)CC1)CCCC3=O,-2.69%,0.862%,5.09%,3.92%,9.35%
CC(=O)NCCNc1cc(Cl)nn2c(-c3cccc(S(=O)(=O)N(C)C)c3)c(C)nc12,,3.04%,,-11.9%,-0.259%
COc1ccc2c(c1)C(=O)N(CCc1ccc(S(=O)(=O)NC(=O)NC3CCCCC3)cc1)C(=O)C2(C)C,-22.3%,2.63%,-1.83%,-22.8%,-9.69%
O=C(c1cccnc1)N1CCN(c2cc(-c3ccccc3)[nH]n2)CC1,-1.78%,-0.991%,1.81%,-0.368%,-0.151%
COc1cc(NC(=O)CCC2CCCN(C(=O)CCN3CCCCO3)C2)cc(OC)c1 (stereo unspecified),-5.44%,-8.49%,-2.92%,-12.8%,-8.04%
O=S(=O)(c1ccccc1)N1CC(Oc2ccc(-c3noc(C4CC4)n3)cc2)C1,-5.17%,-4.98%,-2.05%,-6.12%,-0.762%
Cc1cccc(NC(=O)Cn2nc3n(C(C)C)c(=O)c4ccc(C(=O)NC5CCCC5)cc4n3c2=O)c1,0.106%,2.97%,-5.44%,6.38%,-4.68%
CC1(C(=O)NC2CCCCC2)Cc2ccccc2C(=O)N1Cc1cccs1 (stereo unspecified),-3.32%,4.27%,2.84%,4.52%,-4.26%
CC1CCC23COC(=O)C2=CC(O)CC3C1(C)CCC1=CC(=O)OC1O (stereo unspecified),1.71%,5.8%,8.04%,-6.85%,5.79%
COCCN1CCCC1c1nc(C2CN(S(=O)(=O)c3cccc(OC)c3)C2)no1 (stereo unspecified),1.5%,2.5%,2.32%,2.84%,5.67%
CC(=O)O[C@@H]1[C@H](O[C@@H]2O[C@H](CO)[C@@H](O)[C@H](O)[C@H]2O)[C@@H](O[C@@H]2O[C@@H](C)[C@H](O)[C@@H](O[C@@H]3O[C@H](CO)[C@@H](O)[C@H](O)[C@H]3O)[C@H]2O)[C@H](OC(=O)[C@]23CCC(C)(C)C[C@H]2C2=CCC4[C@@]5(C)C[C@H](O)[C@H](O[C@@H]6O[C@H](C(=O)O)[C@@H](O)[C@H](O)[C@H]6O)[C@@](C)(C(=O)O)C5CC[C@@]4(C)[C@]2(C)CC3)O[C@@H]1C (stereo partly specified),0.087%,9.68%,10.6%,-1.04%,9.49%
Cc1cnc(-c2cnc(NCCNc3ccc(C#N)cn3)nc2-c2ccc(Cl)cc2Cl)[nH]1,-8.81%,6.04%,-36.4%,-25.5%,-10.5%
CC(C)(O)CCc1ccc(OCc2cc(-c3cccc(OC(F)F)c3)c3ncccc3c2)cc1,5.83%,0.322%,10.2%,-10.6%,4.41%
CCOCCOC1CCN(C(=O)c2nn(C)c3ccccc23)CC1,-3.02%,-5.45%,-1.37%,-2.96%,3.01%
CC(C)CCN1C(=O)CC[C@H]2CN(C(=O)Cn3ccc(=O)[nH]c3=O)CC[C@H]21,-3.63%,-8.94%,-2.99%,-7.88%,-8.04%
CC1CCCN(C(=O)c2coc(COc3cccc(F)c3F)n2)C1 (stereo unspecified),-6.97%,-9.87%,-1.97%,-11.2%,-11.3%
CCc1ccc(S(=O)(=O)c2nnn3c2nc(NC2CC2)c2cc(Cl)ccc23)cc1,-11.7%,5.83%,-2.94%,-5.35%,-6.48%

SMILES,"activity change, negative = inhibition [1]","activity change, negative = inhibition [2]","activity change, negative = inhibition [3]","activity change, negative = inhibition [4]","activity change, negative = inhibition [5]"
COc1ccc2cc3n(c2c1)CC(C)(C(=O)NC1CCCC1)N(Cc1ccccc1C)C3=O (stereo unspecified),-3.62%,1.88%,-1.63%,-7.95%,-2.3%
COc1ccc(S(=O)(=O)NCC(c2ccco2)N2CCN(c3ccccc3)CC2)cc1 (stereo unspecified),0.817%,0%,-4.03%,-7.97%,-4.31%
CC1(C(=O)NC2CCCCCCC2)Cn2c(ccc2-c2ccccc2)C(=O)N1CC1CCCO1 (stereo unspecified),0.676%,0%,3.32%,-12.4%,1.02%
CC(C)c1nc(-c2ccc(OC3CCN(C(=O)c4n[nH]c5ccccc45)C3)cc2)no1 (stereo unspecified),-3.45%,-2.05%,-1.83%,0.817%,4.13%
CCn1c(-c2nonc2N)nc2cncc(C(=O)N3CC[C@H](N)C3)c21,,-9.24%,,-12.5%,1.68%
CCc1ccc(CNC(=O)c2cc3n(n2)CC(C)(C(=O)NCc2ccccc2)N(C)C3=O)cc1 (stereo unspecified),0.788%,0%,4.07%,3.15%,1.32%
CC(C)C1c2cccn2CCN1C(=O)Nc1ccccc1F (stereo unspecified),15.6%,1.1%,8.3%,6.3%,8.78%
Cc1ccc(C(=O)CSc2nnc3n(C)c(=O)c4ccc(C(=O)NC5CCCCC5)cc4n23)cc1,3.09%,0.293%,4.46%,9.26%,6.59%
COc1ccc(CN2CCC(N3CCOC3=O)CC2)cc1,-7.09%,-8.69%,-3.88%,-19.3%,-3.61%
O=C(c1ccc(Br)o1)N1CCC(c2n[nH]c(=O)n2Cc2ccc(F)cc2)CC1,1.4%,1.48%,1.44%,-2.53%,2.19%
CO[C@@H](Cc1ccc(OCCc2nc(-c3ccccc3)oc2C)c2ccsc12)C(=O)O,-0.613%,7.52%,11.4%,-23.6%,7.43%
Cc1ccc(C#N)c(-c2cc(NCc3cccnc3)nc3[nH]ccc23)n1,-9.18%,-5.31%,-4.3%,-7.97%,-8.6%
NCc1cccc(-c2cncnc2)c1,-2.45%,-0.569%,-15.1%,0.192%,-2.5%
COCC(=O)NC[C@H]1CCN(Cc2ccc(Br)o2)C[C@H]1N(C)C,-2.55%,-1.85%,-0.299%,-8.14%,-9.57%
CC1(C(=O)NC2CCCC2)Cn2c(ccc2-c2ccco2)C(=O)N1Cc1ccccc1 (stereo unspecified),-4%,0%,0.458%,-3.02%,-2.25%
CC(=O)Nc1c2n(c3ccccc13)CC(C)(C(=O)NC1CCCCC1)N(Cc1ccc(F)cc1)C2=O (stereo unspecified),-8.2%,-3.05%,-1.64%,-4.42%,-1.75%
CCCn1c(=O)c2ccc(C(=O)NCC(C)C)cc2n2c(=O)n(CC(=O)c3ccc(F)cc3F)nc12,2.97%,1.02%,6.07%,0.078%,5.56%
O=C1CO[C@H]2CCN(Cc3ccc4c(c3)CCO4)CC[C@@H]2N1Cc1ccccc1,-10.8%,-11.1%,-21.7%,-32.9%,-30.5%
COc1ccc(-c2nnc3n(Cc4ccccc4)c(=O)c4ccccc4n23)cc1OC,-8.54%,4.97%,-3.23%,-2.92%,-4.28%

SMILES,"activity change, negative = inhibition [1]","activity change, negative = inhibition [2]","activity change, negative = inhibition [3]","activity change, negative = inhibition [4]","activity change, negative = inhibition [5]"
C=C1CCC[C@]2(C)CC[C@@H](C(=C)C(=O)O)[C@H](O)[C@@H]12,-1.03%,-4.25%,-0.198%,-15%,1.85%
CNCc1ccc(-c2[nH]c3cc(F)cc4c3c2CCNC4=O)cc1,-11.7%,-6.13%,-54.5%,-38.7%,-22%
O=C(C1CC2(CCNCC2)CN1)N1CCC(c2nc3ccccc3[nH]2)CC1 (stereo unspecified),-1.08%,0.745%,-0.563%,3.05%,-3.19%
O=C1CCN(S(=O)(=O)c2ccccc2)CCCN(C(=O)c2c[nH]c3ccccc23)CCN1,-8.31%,-6.4%,-3.28%,-15.8%,-7.4%
COc1ccccc1-c1[nH]nc2ncc(C(=O)N3C[C@@H](C)O[C@@H](C)C3)nc12,-32.1%,-24.2%,-43.3%,-27.2%,-20.1%
COC(=O)CC[C@@H](C)[C@H]1CC[C@H]2[C@@H]3CC(=O)[C@H]4C[C@H](OC(C)=O)CC[C@]4(C)[C@H]3CC[C@]12C,1.79%,0.796%,7.5%,-9.28%,1.76%
COc1cccc(CN2C(=O)c3cc4occc4n3CC2(C)C(=O)NC2CCCCCC2)c1OC (stereo unspecified),3.58%,0%,4.25%,-2.53%,-1.72%
Cc1ccccc1Cn1nc2n(Cc3ccccc3)c(=O)c3ccccc3n2c1=O,-3.48%,-1.15%,1.62%,-8.36%,-3.95%
COc1ccccc1-c1ccc(C(=O)N2CCC(NC(=O)Cc3ccc(F)cc3)CC2)cc1,-8.19%,-6.12%,-2.48%,-12.1%,-9.39%
O=c1c2ccccc2n2c(SCc3ccc(F)cc3)nnc2n1Cc1ccccc1,7.68%,0%,4.12%,3.64%,5.53%
O=C(NCC1CN(Cc2cccc(O)c2)CC12CN(c1ccccc1)C2)c1ccccc1 (stereo unspecified),-11.9%,-11.6%,-28.5%,-14.7%,-11.1%
O=C(/C=C/c1ccc(O)cc1)OC1[C@H](O)CC(O)(C(=O)O)C[C@H]1O (stereo partly specified),-1.68%,-19.1%,-4.15%,-29.6%,-8.41%
CC(=O)C=C=C1C(C)(C)CC(O[C@@H]2O[C@H](CO)[C@@H](O)[C@H](O)[C@H]2O)CC1(C)O (stereo partly specified),0.333%,3.78%,4.81%,-7.17%,-2.14%
CCNC(=O)c1noc(-c2cc(C(C)C)c(O)cc2O)c1-c1ccc(CN2CCOCC2)cc1,-5.86%,-1.37%,-4.24%,-14.5%,-4.85%
C=C1CC/C=C(/CO)C(=O)C[C@@H]2[C@@H]1C[C@@]2(C)COC(C)=O,1.86%,6.92%,6.41%,-9.13%,1.02%
COc1ccc(CC2CN(Cc3cccc(-n4cccn4)c3)CCO2)cc1 (stereo unspecified),-2.47%,1.03%,1.64%,-1.13%,-16%
CC1CCC(NC(=O)C2(C)Cn3c(ccc3-c3ccco3)C(=O)N2CCc2ccc(Cl)cc2)CC1 (stereo unspecified),-2.86%,4.93%,-0.275%,0.556%,-1.46%
COc1ccccc1CCC(=O)N1c2ccccc2CC1c1nc(C2CC2)no1 (stereo unspecified),-1.66%,-1.28%,2.35%,-7.7%,-2.61%
COc1ccc2cc3n(c2c1)CC(C)(C(=O)NCC1CCCO1)N(Cc1ccccc1Cl)C3=O (stereo unspecified),2.71%,0%,5.87%,2.91%,-1.42%
